# According to the supplement of paper PMC3334620:
# In all, about 33,000 sequences were measured (“E-score (-0.5 to 0.5)”: median about -0.035, highest 2% from about 0.35 on). Some of the results follow.
# Target: T1, Pdr3 (UniProt P33200)
# T1 sequence: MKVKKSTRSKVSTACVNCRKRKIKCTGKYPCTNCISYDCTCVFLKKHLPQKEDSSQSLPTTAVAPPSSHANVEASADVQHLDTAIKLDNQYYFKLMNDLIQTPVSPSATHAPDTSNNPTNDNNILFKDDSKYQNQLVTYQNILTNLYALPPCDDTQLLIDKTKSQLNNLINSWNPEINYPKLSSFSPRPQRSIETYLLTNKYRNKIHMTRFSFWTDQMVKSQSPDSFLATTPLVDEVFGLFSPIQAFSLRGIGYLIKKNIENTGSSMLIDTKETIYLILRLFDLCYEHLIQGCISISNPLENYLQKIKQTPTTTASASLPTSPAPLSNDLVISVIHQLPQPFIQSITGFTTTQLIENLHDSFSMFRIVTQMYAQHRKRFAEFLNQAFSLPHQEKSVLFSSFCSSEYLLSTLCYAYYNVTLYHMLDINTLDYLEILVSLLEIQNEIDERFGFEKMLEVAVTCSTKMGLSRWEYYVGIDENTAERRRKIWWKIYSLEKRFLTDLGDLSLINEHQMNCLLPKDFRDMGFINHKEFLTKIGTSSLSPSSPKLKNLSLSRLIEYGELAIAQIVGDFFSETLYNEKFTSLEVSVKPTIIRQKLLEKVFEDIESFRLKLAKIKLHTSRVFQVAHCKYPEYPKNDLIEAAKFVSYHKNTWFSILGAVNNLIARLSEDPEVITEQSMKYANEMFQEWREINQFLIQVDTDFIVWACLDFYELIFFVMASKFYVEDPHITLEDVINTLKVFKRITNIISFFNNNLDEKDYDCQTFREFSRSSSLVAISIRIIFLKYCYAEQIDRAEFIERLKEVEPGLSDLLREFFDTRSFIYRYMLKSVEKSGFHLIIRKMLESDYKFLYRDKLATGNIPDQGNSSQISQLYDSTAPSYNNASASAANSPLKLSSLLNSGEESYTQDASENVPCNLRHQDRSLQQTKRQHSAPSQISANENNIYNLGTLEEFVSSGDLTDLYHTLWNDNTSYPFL
# Assay: PBM E-score (8-mer binding enrichment) (E-score (-0.5 to 0.5)); higher = stronger / more preferred TF binding; most listed sequences are background and not binding sites
# Details: protein concentration: 200 nM; construct: GST-full length
# Procedure: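 Universal 'all 10-mer' protein binding microarrays (Agilent AMADID 015681) probed with GST-tagged S. cerevisiae TFs (full-length or DBD) made by in vitro transcription/translation (PURExpress), about 100-200 nM. Bound TF was detected with fluorescent anti-GST. Each ungapped 8-mer (which stands for itself and its reverse complement) is scored by the PBM enrichment score (E-score), a modified Wilcoxon-Mann-Whitney statistic from -0.5 to +0.5, computed with the Universal PBM Analysis Suite. Scale: above 0.35 generally sequence-specific binding.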
row,Sequence,PBM E-score
1,AGTTTCTA,-0.212
2,CTTTCAGC,-0.0831
3,GGTCTAAC,-0.031
4,ACCACACG,-0.103
5,GCCTGGTA,-0.285
6,CATGGAGG,-0.121
7,CTAGCGCC,-0.116
8,GTAGCCAC,-0.345
9,GATGATGA,0.101
10,AAGATTTG,0.00494
11,CAACGTCC,-0.012
12,AAGATTGT,-0.134
13,ATTACTCC,0.0865
14,AGGGGAAA,-0.0896
15,AACTGCGC,-0.146
16,CCGTGACG,0.161
17,AATTGGCG,-0.0254
18,CCTCGTTA,-0.167
19,GCGGCTTA,-0.0127
20,GTCAAATA,-0.111
21,CTTATATA,0.0525
22,CGCACTTC,-0.0221
23,AAATTACA,-0.0116
24,GAGTAGGA,-0.0876
25,CAACTAGA,-0.0997

row,Sequence,PBM E-score
1,AAGATATC,0.0952
2,CTATTTGC,-0.094
3,CTCGCATC,-0.0271
4,AGCATGAA,-0.111
5,ATGACCTC,-0.21
6,AATGGTCT,-0.025
7,ACTCAGCG,0.0198
8,GGGCAAGA,0.141
9,CACGGCTC,0.064
10,GCGTACAA,-0.158
11,ACTATGCG,0.151
12,CTTCAGAC,-0.177
13,CTATGTTA,0.148
14,CCGTTTAC,0.185
15,CATGTACA,-0.248
16,GATTAGAA,-0.0925
17,CCGGGTCA,0.349
18,CAGAAAGA,-0.14
19,CACATTTA,-0.347
20,TGAAATCA,0.0512
21,GCATACTA,0.0452
22,CCTACCAG,-0.23
23,CCTAGCTA,-0.218
24,GAACCCCA,0.211
25,CGACTAAC,0.0493

row,Sequence,PBM E-score
1,ATACAACC,0.0891
2,ACCGATGA,-0.0178
3,CCCATTCA,0.179
4,ACTTGAAA,-0.0654
5,AGGTTGTG,-0.253
6,ATGGCCGC,0.0766
7,CACGTAGA,-0.234
8,CGTTTGGC,-0.0728
9,CGTTCATA,-0.175
10,CAACCTGA,-0.295
11,CACGATAA,0.00396
12,CATGCCGC,0.345
13,GGTCGGCA,-0.00943
14,ACATCTTC,0.17
15,AAGAGGCT,-0.285
16,GATCGCGC,0.117
17,TCCCTAGA,-0.166
18,ATTTATCG,0.0282
19,CGAGTGCC,0.0449
20,AACAAGGA,0.0135
21,GGAGCTCC,0.285
22,CCTGGGCG,0.0119
23,ACCGTTAA,0.0941
24,GAGTTTGA,0.0662
25,ACGGAAAC,0.452

row,Sequence,PBM E-score
1,ACCTGGCC,0.162
2,CATATACG,-0.0904
3,AATTAGAC,-0.243
4,ATGACTAG,-0.276
5,AGGAGCGA,-0.199
6,ATTGGTCA,-0.163
7,ATCCGGCA,0.255
8,CGACGGGA,0.311
9,AGTAGTAA,-0.0722
10,AGATATCG,-0.0672
11,AGGGACCG,-0.128
12,CACTGTGA,-0.132
13,CTCTTGAA,-0.192
14,TAGTGGCA,-0.0992
15,AAAGGCAG,-0.108
16,CAACGATC,-0.0405
17,TCAACGGA,0.359
18,ATCATCGA,0.0114
19,TACGCAAA,-0.328
20,ATAGAACG,0.147
21,AGTCGAGA,-0.099
22,GCAAGAGC,-0.12
23,CACATCCG,0.291
24,GAATCCCC,0.14
25,GCCAGTCA,-0.0896

row,Sequence,PBM E-score
1,ACTCAGTC,-0.196
2,CGATGACG,-0.16
3,CCGATCTC,0.248
4,CGGTACAG,0.0702
5,CGGTTAAG,-0.044
6,AAGGACCT,-0.0617
7,AGTGAATC,-0.0967
8,CTCTCGAC,-0.244
9,GCGATTCA,-0.154
10,AGCTGATC,0.149
11,AGCATAAT,0.0662
12,GCCCTCTA,-0.229
13,AAAACATG,-0.0544
14,CAGTTACA,-0.0561
15,ACGCTCAG,-0.294
16,GCAGGGCA,-0.0439
17,CAACCATC,-0.0344
18,GGTTCGAC,-0.0247
19,ACTACGCA,-0.236
20,CAGAGAGC,-0.116
21,AACGGGCC,0.107
22,TGACACAA,0.00452
23,AATGTGTC,0.0699
24,CCATCCCA,-0.0225
25,CGTTCTCA,-0.119

row,Sequence,PBM E-score
1,CCCTTAGA,-0.37
2,ACAAATTA,0.0754
3,ATGGGTCA,-0.162
4,AGTGCATA,-0.169
5,ATCTCCCC,0.00429
6,ATGGGAGC,0.0452
7,TAGCCATA,-0.312
8,ACGCTAGC,-0.151
9,CAACTGGA,-0.0462
10,AAGAATTG,0.0285
11,GATGCGCC,0.0344
12,GACACACC,0.105
13,TGAGCCAA,-0.304
14,CTATGCAC,-0.271
15,AGAATTAC,0.00038
16,GCTAGAAA,0.00276
17,GAATGTCA,-0.092
18,CTCACACA,0.0581
19,CCAGACCA,-0.109
20,AGAGTCCC,-0.133
21,ATGTGCAC,-0.0349
22,AAGCAGCT,-0.0614
23,CTGCTGCC,-0.0922
24,GGTAGACA,-0.00736
25,ATCTCTTA,-0.0707

row,Sequence,PBM E-score
1,AACCGTGG,-0.0147
2,ACCCAGTA,-0.307
3,CCGCGCGC,0.332
4,AATAGAGA,-0.086
5,GCATAGAA,0.0956
6,CAAGCGAG,0.0544
7,CATCCCCA,-0.0591
8,ACGAACGG,0.286
9,GTGGAGTA,-0.134
10,ACGTCTCG,-0.0164
11,CATTAATA,0.0798
12,GCGATCCA,-0.0136
13,AGACGCCA,-0.123
14,TACCTTCA,-0.146
15,CCAGCCAG,-0.0939
16,AGATATTA,0.053
17,CATGATCA,-0.153
18,TAAGAGTA,-0.166
19,CTGCATTA,-0.0513
20,CCAGAGGC,-0.251
21,GGACTGGA,0.122
22,AGGCTATA,-0.194
